# Results taken from PubChem BioAssay AID2675 (National Center for Advancing Translational Sciences (NCATS), 2010).
# Hit rate of the full screen: of about 280,000 compounds, about 100 (0.036%) were called active. The inconclusive results got no clear call from the source; some entries with a clear call stand among them for comparison. Calls come from the whole dose curve; as a rule, active = well fitted inhibition curve with a large enough effect in the signal ratio, with a control signal flat (not every such curve was filed as active); inconclusive = small, poorly fitted or top-dose-only effect, or effect the other way, or a change in a side signal; inactive = no such curve, though single readings can be large or run the other way; the % refers to the signal ratio. Where the call is inconclusive, the potency comes from a doubtful curve fit. “Side channel” marks fits to a control or component signal instead of the main read-out.
# Molecular target: Muscleblind-like protein 1 (Homo sapiens) (UniProt Q9NR56)
# Assay: qHTS Assay for Inhibitors of MBNL1-poly(CUG) RNA binding
# Settings: TR-FRET MBNL1-His/biotin-(CUG)12 binding, 665/545 ratio; series mostly up to 57.5 µM
# In short: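 MBNL1-His + Biotin-(CUG)12, cpd titration 92 nM–58 uM; Tb anti-His Ab 0.055 ng/ul, SA-XL665 5 nM (final); 60 min RT; ratiometric 665/545 nm, Ex 340 nm; normalized to buffer and full-complex controls.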
# Potency is the fitted concentration of half-maximal effect; tags give direction and shape of the fitted curve or compound fluorescence and quenching.
# Sequence of UniProt Q9NR56 (Q9NR56 whole entry, looked up): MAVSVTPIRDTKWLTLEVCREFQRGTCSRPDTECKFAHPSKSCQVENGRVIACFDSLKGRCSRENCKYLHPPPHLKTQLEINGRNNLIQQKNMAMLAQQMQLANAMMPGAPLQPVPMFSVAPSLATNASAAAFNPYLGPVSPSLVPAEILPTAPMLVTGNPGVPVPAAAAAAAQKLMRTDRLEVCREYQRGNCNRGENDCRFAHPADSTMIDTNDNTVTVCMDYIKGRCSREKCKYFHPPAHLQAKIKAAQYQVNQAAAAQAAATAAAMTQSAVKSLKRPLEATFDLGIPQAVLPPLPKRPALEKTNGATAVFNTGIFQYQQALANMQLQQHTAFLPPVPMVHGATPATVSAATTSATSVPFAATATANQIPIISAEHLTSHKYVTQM
row,Compound,Potency
1,Cc1ccc(-n2c(O)c(/C=N/c3ncc(Br)cc3Br)c(=O)[nH]c2=O)cc1,inactive
2,O=C(Nc1c[nH]c(=O)[nH]c1=O)c1cc([N+](=O)[O-])cc([N+](=O)[O-])c1,"inconclusive: 4.47 µM [quencher, side channel, partial curve]"
3,COc1cccc(-c2nc3ccc(N4CCN(C)CC4)cc3[nH]2)c1,"inconclusive: 0.126 µM [quencher, side channel, full curve, poor fit]"
4,CC(=O)Nc1ccccc1C(=O)OCC(=O)c1ccc2ccccc2c1,"inconclusive: 22.4 µM [quencher, side channel, partial curve, poor fit]"
5,COc1ccc(CN(C)S(=O)(=O)c2nnc(NC(=O)c3ccccc3Br)s2)cc1,inactive
6,c1ccc(-c2cc(-c3ccccc3)[n+](-c3ccccc3)c(-c3ccccc3)c2)cc1,"inconclusive: 28.2 µM [quencher, side channel, single point]"
7,Cc1ccc(N2C(=O)/C(=C/c3ccc(CN(CCC#N)S(C)(=O)=O)o3)C(=O)NC2=S)cc1,inactive
8,c1cc2n(c1)-c1c(ccc3c1OCO3)CNC2c1ccc2c(c1)OCO2 (stereo not given),"inconclusive: 0.794 µM [quencher, side channel, full curve]"
9,C=C(C)Cn1c(-c2cccc([N+](=O)[O-])c2)n[nH]c1=S,"inconclusive: 15.8 µM [quencher, side channel, partial curve]"
10,Cn1c(O)c(C=NC2C(=O)C3(C)CCC2C3(C)C)c(=O)n(C)c1=O (stereo not given),"inconclusive: 0.891 µM [fluorescent, side channel, full curve, poor fit]"
11,O=C1c2cccc3cccc(c23)C(=O)N1/N=C/c1c(O)n(-c2ccccc2)c(=O)[nH]c1=O,"inconclusive: 3.98 µM [quencher, side channel, full curve]"
12,O=[N+]([O-])c1ccc(Sc2nc3ccccc3o2)c([N+](=O)[O-])c1,"inconclusive: 11.2 µM [quencher, side channel, partial curve]"
13,O=[N+]([O-])c1ccc(N2CCCC2)cc1N/N=C1\CN2CCC1CC2,"inconclusive: 2.51 µM [quencher, side channel, partial curve]"
14,CCOC(=O)c1ncn2c1CN(C)C(=O)c1cc(F)ccc1-2,"inconclusive: 0.112 µM [inhibitor, full curve, poor fit]"
15,O=[N+]([O-])c1ccc(N2CCNCC2)c2ncccc12,"inconclusive: 7.08 µM [quencher, partial curve]"
16,CCCCCn1c(N)c(C(=O)NCc2cccs2)c2nc3ccccc3nc21,inactive
17,O=c1[nH]c(=S)[nH]c(O)c1N=Nc1cc2c(cc1[N+](=O)[O-])OCO2,"inconclusive: 20 µM [quencher, side channel, partial curve]"
18,Cc1nonc1OCCNc1ccc([N+](=O)[O-])c2cccnc12,"inconclusive: 7.08 µM [quencher, side channel, single point]"

row,Compound,Potency
1,CN1CN(c2cccc([N+](=O)[O-])c2)CN=C1N[N+](=O)[O-],"inconclusive: 31.6 µM [quencher, single point]"
2,Cc1ccc(-n2c(C)cc(/C=C3/C(=O)NC(=O)N(C)C3=O)c2C)cc1,"inconclusive: 7.08 µM [quencher, side channel, single point]"
3,Cc1nc2ccccc2c2c1C(=O)N(C(C)C)C2=O,"inconclusive: 7.08 µM [quencher, side channel, partial curve]"
4,COC(=O)C1=Nc2ccccc2/C1=C\c1c(O)n(-c2ccc(OC)cc2)c(=O)[nH]c1=O,"inconclusive: 14.1 µM [quencher, side channel, partial curve]"
5,O=[N+]([O-])c1ccc2nc(N3CCNCC3)ccc2c1,"inconclusive: 10 µM [quencher, side channel, partial curve]"
6,C=CCN1C(=O)NC(=O)/C(=C/c2ccoc2)C1=O,"inconclusive: 22.4 µM [quencher, side channel, single point]"
7,N#CC(C#N)=Cc1ccc(N2CCCC2)cc1,"inconclusive: 11.2 µM [quencher, side channel, partial curve]"
8,Cn1c(=O)c2nncnc2n(C)c1=O,"inconclusive: 10 µM [quencher, side channel, partial curve]"
9,COc1ccc(-c2nn(CCC#N)cc2C(=O)Nc2cccc([N+](=O)[O-])c2)cc1OC,"inconclusive: 14.1 µM [quencher, side channel, partial curve]"
10,CN1CCN(CC(=O)Nc2ccc([N+](=O)[O-])cc2C(=O)c2ccccc2)CC1,"inconclusive: 11.2 µM [quencher, side channel, partial curve]"
11,C=CCOc1ccc(CC2C(=O)N(C)C(=O)N(C)C2=O)cc1,"inconclusive: 6.31 µM [quencher, side channel, partial curve, poor fit]"
12,O=C(CCN1CCN(CCO)CC1)N1c2ccccc2Sc2ccc(C(F)(F)F)cc21,inactive
13,COC(=O)C1C(O)C(C)C(O)C(C)/C=C\C=C(/C)C(=O)Nc2c(C)c(OC(C)=O)c3c(c2O)C(=O)C(C)=C2OCOC(=C23)/C(C)=C/C(C)(O)C(O)C(C)C1O (stereo not given),"inconclusive: 8.91 µM [quencher, side channel, partial curve]"
14,Nc1ccc2nonc2c1[N+](=O)[O-],"inconclusive: 14.1 µM [quencher, side channel, partial curve]"
15,C/C(CC(c1ccccc1)c1c(O)c2ccccc2oc1=O)=N\Nc1ccc([N+](=O)[O-])cc1[N+](=O)[O-] (stereo not given),"inconclusive: 15.8 µM [quencher, side channel, partial curve]"
16,CN(CCc1ccccc1)Cc1ccccc1[N+](=O)[O-],"inconclusive: 17.8 µM [quencher, side channel, partial curve]"
17,Cc1cc(OCC(=O)NCc2cccnc2)c2c3c(c(=O)oc2c1)CCCC3,inactive
